Laboratory results: PubChem BioAssay AID1671194 (National Center for Advancing Translational Sciences (NCATS), 2021)
In all, about 140,000 compounds went through this assay and about 240 (0.17%) were called active. The shares of active, inactive and inconclusive entries below differ from those in the screen. Calls follow the shape of the dose curve; as a rule, active = well fitted inhibition curve with a large enough effect; inconclusive = small, poorly fitted or top-dose-only effect; inactive = no such curve, though single readings can be large or run the other way. Potencies beside an inconclusive call are fits to weak or partial responses and may not hold up.

Experiment: Primary qHTS assay for inhibitors of alpha-synuclein gene (SNCA) expression; also: nearly all actives have a fitted effect of over 45% in size;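 as to activity change, negative = inhibition: plate controls were DMSO cells for no effect and cell-free wells for full effect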
Details: HEK-293 SNCA-luciferase knock-in, luminescence, 24 h; activity change, negative = inhibition: at 57.2 µM (top of the series) unless noted
Potency is read from the fitted curve at half-maximal effect; tags tell the direction and shape of the fitted curve.

Potency, inconclusive:
Cn1nc(-c2cccc(F)c2)c(N2CCCCC2)c1NC(=O)Nc1ccccc1 39.8 µM [inhibitor, single point]
Cc1nccn1C(C)CN1C(=O)NC2(CCNCC2)C1=O (centres undefined) 4.47 µM [inhibitor, single point]
Cc1cccc(C(=O)N2CCCC3(C2)NC(=O)N(Cc2ccccc2)C3=O)c1 (centres undefined) 31.6 µM [inhibitor, single point]
N=c1n(CCN2CCCCC2)c2ccccc2n1CC(O)COc1ccc(Cl)cc1Cl (centres undefined) 28.2 µM [inhibitor, partial curve, poor fit]
O=C(NCCC1=CCCCC1)c1ccc2c(c1)N(Cc1ccccc1F)C(=O)c1ccccc1S2(=O)=O 2.82 µM [inhibitor, full curve, poor fit]
COc1ccc(C2(C(=O)N3CCCC(Cn4c(C)nc5cccnc54)C3)CCCCC2)cc1 (centres undefined) 3.16 µM [inhibitor, single point]
CC1=C(C(=O)Nc2ccc(C)cc2)C(c2ccc(Cl)cc2)n2nnnc2N1 (centres undefined) 0.891 µM [inhibitor, full curve, poor fit]
O[C@@H]1C[C@@H](c2nnc3n2CCN(CC2CC2)C3)N(Cc2cccnc2)C1 11.2 µM [inhibitor, partial curve]
O=C1CO[C@H]2CN(c3ncccn3)C[C@H]2N1Cc1ccccc1 7.08 µM [inhibitor, single point]
CCC1=C[C@@H]2CN(C1)Cc1c([nH]c3ccccc13)[C@@](C(=O)OC)(c1cc3c(cc1OC)N(C)[C@@H]1[C@@](O)(C(=O)OC)[C@H](OC(C)=O)[C@]4(CC)C=CCN5CC[C@]31[C@@H]54)C2 0.764 µM [inhibitor, full curve, poor fit]
O=C(Cc1cccs1)NC1CC(=O)N(c2ccc(Cl)cc2)C1 (centres undefined) 1.78 µM [inhibitor, full curve]
COc1ccc(CNC(=O)Cn2c(C)cc3nc4n(c(=O)c32)CCCCC4)cc1OC 3.55 µM [inhibitor, single point]
CC(C)NC[C@H]1COCc2nc3cc(S(C)(=O)=O)ccc3n21 12.6 µM [inhibitor, partial curve]
Cc1c2cnn(-c3ccccc3)c(=O)c2c(C)n1C(C)C(=O)Nc1ccc(Br)cc1F (centres undefined) 39.8 µM [inhibitor, single point]
CCN1c2cc(C)ccc2-n2cccc2C12CCN(C(=O)Nc1cc(OC)c(OC)c(OC)c1)CC2 39.8 µM [inhibitor, single point]
O=C(c1cc2ccccc2o1)N1CCC2(CCCN(Cc3ccccc3F)C2)C1 (centres undefined) 8.91 µM [inhibitor, single point]
COc1ccc(NC(=O)c2ccc3c(c2)N(S(C)(=O)=O)CC3)cc1Cl 14.1 µM [inhibitor, single point]
Cc1nc(-c2ccc(F)cc2)n(CC(=O)NCc2ccc(F)cc2)c(=O)c1CCO 39.8 µM [inhibitor, single point]
CN(C)C(=O)c1ccnc(-c2nnc3ccc(Nc4ccc(F)c(Cl)c4)nn23)c1 56.2 µM [inhibitor, single point]
CCN(CCCNC(=O)c1nn(-c2ccc(OC)c(Cl)c2)c(=O)c2c1c1ccccc1n2C)c1cccc(C)c1 7.08 µM [inhibitor, single point]
CCCN(CC1CCOC1)C(=O)Nc1cc(C)ccc1OC (centres undefined) 0.708 µM [inhibitor, full curve, poor fit]
CN1CCN(c2ccc(C(=O)Nc3n[nH]c4ccc(Cc5cc(F)cc(F)c5)cc34)c(NC3CCOCC3)c2)CC1 48.1 µM [inhibitor, single point]
COc1ccc(C(=O)NCCc2noc(-c3ccccc3)n2)cc1F 3.16 µM [inhibitor, single point]
Cc1ccc(Cl)cc1N1CCN(C(=O)c2cccn2-c2nnc(N3CCCC3)s2)CC1 39.8 µM [inhibitor, single point]
CCN(C(=O)c1cc(S(=O)(=O)N2CCc3ccccc32)cn1C)c1cccc(C)c1 39.8 µM [inhibitor, single point]
COc1ccc(C2Cn3cnc(C(=O)N4CCC(C(=O)NCCc5ccccc5)CC4)c3CO2)cc1 (centres undefined) 39.8 µM [inhibitor, single point]
Nc1ncc(C(=O)N2CCC3(CC2)[C@H](O)C[C@@H]3O)c(C(F)(F)F)n1 39.8 µM [inhibitor, single point]
COc1cc(OC)c(NC(=O)N2CCc3c(sc4c3CCCC4)C2c2ccccc2)cc1Cl (centres undefined) 39.8 µM [inhibitor, single point]
CN(Cc1cccc(C(F)(F)F)c1)C(=O)c1ccccc1Cl 56.2 µM [inhibitor, single point]
COc1ccc(Cn2c(C3CCN(C(=O)Cc4cccc(F)c4)CC3)n[nH]c2=O)cc1 39.8 µM [inhibitor, partial curve, poor fit]
CCN1c2cc(C(=O)Nc3ccc(OC(F)(F)F)cc3)ccc2C(=O)N2CCCCCC21 (centres undefined) 39.8 µM [inhibitor, single point]
S=P(N1CC1)(N1CC1)N1CC1 6.81 µM [inhibitor, full curve, poor fit]
CS(=O)(=O)N1CCN(C(=O)CCC2CCN(c3cc(NC4CC4)ncn3)CC2)CC1 14.1 µM [inhibitor, partial curve, poor fit]
Cc1cccc(N2CCN(C(=O)Cn3cnc4sc(C)c(S(=O)(=O)N5CCN(c6ncccn6)CC5)c4c3=O)CC2C)c1 (centres undefined) 1 µM [inhibitor, full curve, poor fit]
Cc1ccccc1C(=O)Nc1ccc2nc(Nc3cccc(C(F)(F)F)c3)cc(C)c2c1 11.2 µM [inhibitor, partial curve, poor fit]
CCOc1ccc(S(=O)(=O)c2c[nH]c3ccccc3c2=O)cc1 20 µM [inhibitor, single point]
O=C(c1ccc(C(F)(F)F)cc1)N1CCC2(CC1)CC(c1cccc(C(F)(F)F)c1)=NO2 39.8 µM [inhibitor, single point]
COc1ccc(CNC(=O)c2cc(NC(C)=O)cc3nc(C)ccc23)c(OC)c1 10 µM [inhibitor, partial curve, poor fit]
CC(C)(C)C1CCc2c(sc(NC(=O)CCC(=O)O)c2C(=O)Nc2ccccc2C(F)(F)F)C1 (centres undefined) 39.8 µM [inhibitor, single point]
COCCNC(=O)C1(C)CCc2cnc(NCc3ccccc3)nc21 (centres undefined) 3.55 µM [inhibitor, partial curve, poor fit]
O=C(CSc1ccc(Cl)cc1)N[C@@H]1COCC[C@@H]1OCC1CC1 8.91 µM [inhibitor, single point]
O=C(Nc1ccc(C(F)(F)F)cc1)C1CCCN(S(=O)(=O)c2cccc3cccnc23)C1 (centres undefined) 7.08 µM [inhibitor, single point]
COc1ccccc1Nc1c2c(nc3ccc(NC(=O)c4cccc(OC)c4OC)cc13)CCCC2 39.8 µM [inhibitor, single point]

Activity change, negative = inhibition, inactive:
O=C1Nc2ccccc2CC12CCN2Cc1ccccc1C(F)(F)F (centres undefined) 8.97% [at 87.6 µM]
COc1ccc(C)cc1Nc1nc(-c2ccc(OC)c(OC)c2)no1 102%
O=C(c1ccc(C(F)(F)F)cc1)N1CCCC2(CC(c3cccnc3)=NO2)C1 (centres undefined) -3.01%
COc1ccc(C(=O)N2CCC3(CC2)CC(=O)c2ccc(Cl)cc2O3)cc1 -4.27%
CC(NC(=O)CCc1ccccc1)C(=O)N1CCN(c2ccccn2)CC1 (centres undefined) -25.7%
Cc1ccc(-c2ccc3nnc(CNC(=O)c4cnccn4)n3n2)cc1 -1.45%
O=C1NCc2ccccc2CC12CCN(CC1CCCCC1)CC2 -4.81%
Cc1noc(-c2cccn3c(CNC(=O)c4cc(F)cc(F)c4)nnc23)n1 -19.3%
COc1ccccc1OCCCN1CC[C@@](C)(O)[C@@H](O)C1 69.6%
COc1cccc(-c2cc3c(=O)n(CCNC(=O)c4cc(F)ccc4F)ccn3n2)c1 4.73%
NC(=O)Cc1c[nH]c2ncc(-c3cccc(OC(F)(F)F)c3)cc12 -25% [at 87.6 µM]
CC(C)c1ccc(CN2CCCC3(CCN(c4ncccc4C(N)=O)C3)C2)cc1 (centres undefined) -28.1%
COCCCn1c(=O)c(C(=O)NCc2cccs2)nc2cccnc21 -12.3%
CN(C)C[C@@H]1CN(C2CCOCC2)C[C@H]1NC(=O)c1n[nH]c2ccccc12 32.1%
CS(=O)(=O)N1CCC(C2CCN(Cc3ccc(Br)o3)C2)CC1 (centres undefined) 3.73%
O=C(C1CCCCC1)N1CC[C@H](c2nc3ccc(C(F)(F)F)cc3[nH]2)C1 9.84% [at 87.6 µM]
COc1cccc(C(=O)N2CCCC(C(=O)N3CCC(N4Cc5cccn5C4=O)CC3)C2)c1 (centres undefined) 14.5%
O=[S+]1([O-])NC2(CCN(Cc3ccccc3C(F)(F)F)C2)CNc2ccccc21 (centres undefined) -1.28%
CCC(C)NC(=O)C(NC(=O)c1cccc(OC)c1)C1CCN(C(=O)c2cccc(C)c2)CC1 (centres undefined) -5.66%
CC1(c2ccccc2)N(Cc2ccccc2)C(=O)OC12CCN(Cc1cccnc1)CC2 (centres undefined) -7.7% [at 87.6 µM]
O=C1CC2(CCN(C(=O)C3CCN(C(=O)c4ccccc4F)CC3)CC2)Oc2ccccc2N1 52.1%
